In PubChem BioAssay (EPA / NIEHS):
This list was built around the results that the source calls inconclusive (neither active nor inactive); the mix of calls is not that of the screen. A potency beside an inconclusive call is a rough fit, not a confirmed value. Activity calls are given as the source filed them. How the source made its calls: active means hit-call score of the fitted dose curve at least 0.9, where 1 is the maximum; inconclusive means response in the unintended direction; inactive means score below 0.9.

What follows are compounds tested on HMG-CoA synthase (HMGCS2), HMGCS2 (gene 3158) (assay: CLD_HMGCS2_24hr: CellzDirect (CLD) Gene Expression Assay for HMG-CoA synthase (HMGCS2) at 24 hours (AID 2283691)).
Procedure: CLD_24hr is a cell-based, multiplexed-readout assay that uses hepatocyte, a human liver primary cell, with measurements taken at 24 hours after chemical dosing in a 96-well plate.CLD_HMGCS2_24hr is one of 16 assay component(s) measured or calculated from the CLD_24hr assay. It is designed to make measurements of mRNA induction, a form of inducible reporter, as detected with chemiluminescence signals by Quantitative Nuclease Protection Assay (qNPA) technology.Data from the assay component CLD_HMGCS2_24hr was analyzed at the endpoint, CLD_HMGCS2_24hr, in the positive analysis fitting direction relative to DMSO as the negative control and baseline of activity. Using a type of inducible reporter, gain-of-signal activity can be used to understand changes in the reporter gene as they relate to the gene HMGCS2. Furthermore, this assay endpoint can be referred to as a primary readout. To generalize the intended target to other relatable targets, this assay endpoint is annotated to the lyase intended target family, where subfamily is HMG-CoA synthase.
Human hepatocyte cultures were treated daily for two consecutive days with fresh dosing solutions containing appropriate concentrations of the 320 ToxCast chemicals (chemical identities were blinded to CellzDirect and other ToxCast collaborators), vehicle control (0.2% DMSO), and positive control inducers as summarized in Table 1. Due to the large number of treatment groups and chemicals examined, the ToxCast chemicals were divided into two groups (spanning two independent cultures of hepatocytes from separate donor preparations (Hu778: ToxCast plates 1 and 2; Hu776: ToxCast plates 3 and 4). Each preparation of human hepatocyte cultures was treated with respective vehicle control, medium only control, set of six positive controls/reference chemicals for the five hepatic receptor pathways, and a subset of eight of the ToxCast chemicals (indoxacarb, pyrithiobac-sodium, norflurazon, cyhalofop-butyl, methomyl, thiram, acetochlor, and propiconazole). These replicate data, coupled with internal replicates designed within the blinded ToxCast chemical library, provided additional data to evaluate interindividual differences between hepatocyte preparations and their potential impact on chemical profiles.Cell morphology and integrity were evaluated using phase-contrast microscopy as an indicator of hepatocyte cell health (Tyson & Green, 1987). Cultures for each treatment group (i.e., media, vehicle [0.2% DMSO], positive control inducers [multiple concentrations], and the ToxCast chemicals [multiple concentrations]) were observed and cell morphology was assessed relative to vehicle control cultures at each harvest time point (0, 6, 24, or 48 h). […] Images were evaluated at the conclusion of the study to assess changes in cell integrity and account for the effects of chemical exposure on uncharacteristic changes in concentration-dependent gene expression profiles. The results from these determinations of apparent cytotoxicity were annotated (yes/no) alongside the corresponding qNPA data for reference.At the conclusion of each treatment period, hepatocyte cultures (96-well) were washed with 1 volume of HBSS, lysed by addition of 25 ul ArrayPlate lysis buffer (HTG, Tucson, AZ), and 70 ul/well of Denaturation Oil, denatured by incubation at 95C for 10 min, and frozen at approximately -70C until analysis by nuclease protection assay (qNPA) (Roberts et al., 2007). For qNPA analysis, cell lysates were thawed at 50C for approximately 30 min, qNPA probes were added, and samples were incubated at 95C for 10 min to begin the detection process by denaturing the target RNA, dissociating the duplexes and secondary structure hybridization. At the conclusion of the hybridization period, S1 nuclease reagent was added to each sample to digest all nonprotected nucleotides at 50C for 60-90 min. […]

**Q.** With CCCCOCCOCCOCc1cc2c(cc1CCC)OCO2 as the compound, how does the AC50 read?
**A.** The AC50 was inconclusive: 0.00155 µM.

**Q.** Which outcome does the source give for CCOC(=O)NCCOc1ccc(Oc2ccccc2)cc1 here?
**A.** The outcome was “inactive”.

**Q.** For CCC(O)=C1C(=O)CC(C(=O)O)CC1=O (stereo not given), which AC50 is on record?
**A.** Its AC50 is inconclusive: 0.00144 µM.

**Q.** With COc1c(Cl)ccc(Cl)c1C(=O)O as the compound, how does the outcome read?
**A.** Its outcome is “inactive”.

**Q.** How did the outcome turn out when CCCCC(CC)COC(=O)c1ccccc1C(=O)O (stereo not given) was run?
**A.** Its outcome is “inactive”.

**Q.** Which AC50 does the source give for S=C(S)NCCNC(=S)S.[Mn+2].[S-]C([S-])=NCCN=C([S-])[S-].[Zn+2] here?
**A.** Its AC50 is inconclusive: 7.73 µM.

**Q.** How did the AC50 turn out when COC(=O)c1cccc(C)c1S(=O)(=O)NC(=O)Nc1nc(OCC(F)(F)F)nc(N(C)C)n1 was run?
**A.** Its AC50 is inconclusive: 20 µM.

**Q.** CCCCCCC(C)OC(=O)COc1nc(F)c(Cl)c(N)c1Cl (stereo not given) was tested. Which AC50 did it give?
**A.** Its AC50 is inconclusive: 2.36 µM.

**Q.** Which AC50 does the source give for S=C([S-])NCCNC(=S)[S-].[Mn+2] here?
**A.** The AC50 was inconclusive: 4.61 µM.

**Q.** How did the outcome turn out when c1ccc(Nc2ccccc2)cc1 was run?
**A.** Its outcome is “inactive”.

**Q.** For CCCOC(=O)NCCCN(C)C, which outcome is on record?
**A.** The outcome was “inactive”.

**Q.** How did the AC50 turn out when CCCN(CCC)c1c([N+](=O)[O-])cc(C(F)(F)F)c(N)c1[N+](=O)[O-] was run?
**A.** The AC50 was inconclusive: 20 µM.

**Q.** How did the outcome turn out when Oc1ccc(C(c2ccc(O)cc2)C(Cl)(Cl)Cl)cc1 was run?
**A.** Its outcome is “inactive”.

**Q.** CC(C)(C)[C@@H](O)[C@@H](Cc1ccc(Cl)cc1)n1cncn1 was tested. Which AC50 did it give?
**A.** Its AC50 is inconclusive: 20 µM.

**Q.** Which AC50 does the source give for CCOC(=O)[C@H](C)Oc1ccc(Oc2nc3ccc(Cl)cc3o2)cc1 here?
**A.** Its AC50 is inconclusive: 0.00107 µM.
